Here are results for 40 sequences from article PMC12820563, “FoxP3 forms a head-to-head dimer in vivo and stabilizes its multimerization on adjacent microsatellites”.

Some of the results follow.

The assay has as its target T1, MBP-FoxP1dN (Mus musculus, UniProt P58462 326-579).
T1 sequence: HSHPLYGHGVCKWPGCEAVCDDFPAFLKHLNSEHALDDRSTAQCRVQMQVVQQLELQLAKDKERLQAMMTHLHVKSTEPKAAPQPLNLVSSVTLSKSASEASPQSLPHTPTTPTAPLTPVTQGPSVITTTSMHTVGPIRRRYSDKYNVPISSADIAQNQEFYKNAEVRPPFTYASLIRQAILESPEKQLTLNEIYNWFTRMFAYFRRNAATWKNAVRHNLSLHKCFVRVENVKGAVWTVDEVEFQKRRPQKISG
In words: PD-seq (MBP pull-down with sequencing); 20 mM Tris-HCl pH 7.5, 100 mM NaCl, 1.5 mM MgCl2, 0.4 uM protein, 0.1 uM dsDNA library, 30 min, room temperature, amylose pull-down; high values mean tight binding. Conditions: protein: recombinant; tags: His6-MBP; chain copies: 2; dsDNA, one strand shown. The method, boiled down:
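A degenerate double-stranded DNA library, filled in with Klenow, was added at 0.1 µM to 0.4 µM His6-MBP-tagged mouse FoxP3 or FoxP1 fragment lacking the N-terminus, expressed in E. coli. Incubation lasted 30 min at room temperature in Tris pH 7.5 buffer with NaCl and MgCl2, after which complexes were collected on amylose resin, washed three times, digested with proteinase K to free the DNA, barcoded by PCR and sequenced by Illumina. Binding is the pooled-replicate reads-per-million enrichment of pull-down over input.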
For the sequence “GATGATTGTTCTCCCAGCTGATGAATTAAAGTGATCGAGTAAACAAATTTTCCTAATCTTTCTGTTCAAGCGCCATCTAC”, the binding signal was 0.904 RPM ratio (pull-down/input). Then “GATGATTGTTCTCCCAGCTGATGAATTTAGAGGTTCGAGTAAACAAATTTTCCTAATCTTTCTGTTCAAGCGCCATCTAC”, with 0.984 RPM ratio (pull-down/input); and “GATGATTGTTCTCCCAGCTGATGAATTGTTCATTTCGAGTAAACAAATTTTCCTAATCTTTCTGTTCAAGCGCCATCTAC”, with 1.2 RPM ratio (pull-down/input). Then “GATGATTGTTCTCCCAGCTGATGAATTAAGTAAATCGAGTAAACAAATTTTCCTAATCTTTCTGTTCAAGCGCCATCTAC”, with 1.37 RPM ratio (pull-down/input). On to “GATGATTGTTCTCCCAGCTGATGAATTTCACAATTCGAGTAAACAAATTTTCCTAATCTTTCTGTTCAAGCGCCATCTAC”, for which the binding signal is 0.968 RPM ratio (pull-down/input). Take “GATGATTGTTCTCCCAGCTGATGAATTATCTGAATCGAGTAAACAAATTTTCCTAATCTTTCTGTTCAAGCGCCATCTAC”: the binding signal is 0.99 RPM ratio (pull-down/input). In the case of “GATGATTGTTCTCCCAGCTGATGAATTGGTTCGCTCGAGTAAACAAATTTTCCTAATCTTTCTGTTCAAGCGCCATCTAC” it was 0.888 RPM ratio (pull-down/input); in that of “GATGATTGTTCTCCCAGCTGATGAATTCGTATCTTCGAGTAAACAAATTTTCCTAATCTTTCTGTTCAAGCGCCATCTAC”, 1.02 RPM ratio (pull-down/input).

With “GATGATTGTTCTCCCAGCTGATGAATTAATCGCATCGAGTAAACAAATTTTCCTAATCTTTCTGTTCAAGCGCCATCTAC”, the binding signal was 1.25 RPM ratio (pull-down/input). Then “GATGATTGTTCTCCCAGCTGATGAATTACGTGTTTCGAGTAAACAAATTTTCCTAATCTTTCTGTTCAAGCGCCATCTAC”, with 1.23 RPM ratio (pull-down/input); and “GATGATTGTTCTCCCAGCTGATGAATTGCTATCGTCGAGTAAACAAATTTTCCTAATCTTTCTGTTCAAGCGCCATCTAC”, with 1.02 RPM ratio (pull-down/input). For the sequence “GATGATTGTTCTCCCAGCTGATGAATTAATTTGATCGAGTAAACAAATTTTCCTAATCTTTCTGTTCAAGCGCCATCTAC”, the binding signal is 0.962 RPM ratio (pull-down/input). Then “GATGATTGTTCTCCCAGCTGATGAATTTATGTTATCGAGTAAACAAATTTTCCTAATCTTTCTGTTCAAGCGCCATCTAC”, with 2.22 RPM ratio (pull-down/input); and “GATGATTGTTCTCCCAGCTGATGAATTGCTCTAATCGAGTAAACAAATTTTCCTAATCTTTCTGTTCAAGCGCCATCTAC”, with 1.1 RPM ratio (pull-down/input); and “GATGATTGTTCTCCCAGCTGATGAATTAGTGTCATCGAGTAAACAAATTTTCCTAATCTTTCTGTTCAAGCGCCATCTAC”, with 1.27 RPM ratio (pull-down/input). In the case of “GATGATTGTTCTCCCAGCTGATGAATTAGACGAATCGAGTAAACAAATTTTCCTAATCTTTCTGTTCAAGCGCCATCTAC” it was 0.93 RPM ratio (pull-down/input). Then “GATGATTGTTCTCCCAGCTGATGAATTGGACTGTTCGAGTAAACAAATTTTCCTAATCTTTCTGTTCAAGCGCCATCTAC”, with 0.873 RPM ratio (pull-down/input); and “GATGATTGTTCTCCCAGCTGATGAATTGGCCGAGTCGAGTAAACAAATTTTCCTAATCTTTCTGTTCAAGCGCCATCTAC”, with 0.765 RPM ratio (pull-down/input); and “GATGATTGTTCTCCCAGCTGATGAATTTGATGACTCGAGTAAACAAATTTTCCTAATCTTTCTGTTCAAGCGCCATCTAC”, with 0.974 RPM ratio (pull-down/input).

For “GATGATTGTTCTCCCAGCTGATGAATTCGGGAGCTCGAGTAAACAAATTTTCCTAATCTTTCTGTTCAAGCGCCATCTAC”, the binding signal is 0.758 RPM ratio (pull-down/input). Then “GATGATTGTTCTCCCAGCTGATGAATTGCCCACCTCGAGTAAACAAATTTTCCTAATCTTTCTGTTCAAGCGCCATCTAC”, with 0.84 RPM ratio (pull-down/input); and “GATGATTGTTCTCCCAGCTGATGAATTCCGTGACTCGAGTAAACAAATTTTCCTAATCTTTCTGTTCAAGCGCCATCTAC”, with 0.825 RPM ratio (pull-down/input). Then “GATGATTGTTCTCCCAGCTGATGAATTTAGTACCTCGAGTAAACAAATTTTCCTAATCTTTCTGTTCAAGCGCCATCTAC”, with 0.95 RPM ratio (pull-down/input); and “GATGATTGTTCTCCCAGCTGATGAATTTGTCACATCGAGTAAACAAATTTTCCTAATCTTTCTGTTCAAGCGCCATCTAC”, with 1.24 RPM ratio (pull-down/input).

For the sequence “GATGATTGTTCTCCCAGCTGATGAATTTGACGAGTCGAGTAAACAAATTTTCCTAATCTTTCTGTTCAAGCGCCATCTAC”, the binding signal was 0.798 RPM ratio (pull-down/input).

For “GATGATTGTTCTCCCAGCTGATGAATTGTGATAATCGAGTAAACAAATTTTCCTAATCTTTCTGTTCAAGCGCCATCTAC”, the binding signal is 1.56 RPM ratio (pull-down/input). In the case of “GATGATTGTTCTCCCAGCTGATGAATTCCATATATCGAGTAAACAAATTTTCCTAATCTTTCTGTTCAAGCGCCATCTAC” it was 0.994 RPM ratio (pull-down/input); in that of “GATGATTGTTCTCCCAGCTGATGAATTTAGATTGTCGAGTAAACAAATTTTCCTAATCTTTCTGTTCAAGCGCCATCTAC”, 1.23 RPM ratio (pull-down/input). Consider “GATGATTGTTCTCCCAGCTGATGAATTGCACCATTCGAGTAAACAAATTTTCCTAATCTTTCTGTTCAAGCGCCATCTAC”, for which the binding signal is 1.14 RPM ratio (pull-down/input). In the case of “GATGATTGTTCTCCCAGCTGATGAATTCTAATCCTCGAGTAAACAAATTTTCCTAATCTTTCTGTTCAAGCGCCATCTAC” it was 0.781 RPM ratio (pull-down/input); in that of “GATGATTGTTCTCCCAGCTGATGAATTAATAGCCTCGAGTAAACAAATTTTCCTAATCTTTCTGTTCAAGCGCCATCTAC”, 0.979 RPM ratio (pull-down/input); in that of “GATGATTGTTCTCCCAGCTGATGAATTGGAATGCTCGAGTAAACAAATTTTCCTAATCTTTCTGTTCAAGCGCCATCTAC”, 1.06 RPM ratio (pull-down/input). Then “GATGATTGTTCTCCCAGCTGATGAATTAAATACATCGAGTAAACAAATTTTCCTAATCTTTCTGTTCAAGCGCCATCTAC”, with 1.44 RPM ratio (pull-down/input). As to “GATGATTGTTCTCCCAGCTGATGAATTAAGGGTATCGAGTAAACAAATTTTCCTAATCTTTCTGTTCAAGCGCCATCTAC”, the binding signal was 0.873 RPM ratio (pull-down/input).

With “GATGATTGTTCTCCCAGCTGATGAATTCTTCGAATCGAGTAAACAAATTTTCCTAATCTTTCTGTTCAAGCGCCATCTAC”, the binding signal was 0.952 RPM ratio (pull-down/input). Then “GATGATTGTTCTCCCAGCTGATGAATTGTGTCAGTCGAGTAAACAAATTTTCCTAATCTTTCTGTTCAAGCGCCATCTAC”, with 1.04 RPM ratio (pull-down/input); and “GATGATTGTTCTCCCAGCTGATGAATTTCAGTGTTCGAGTAAACAAATTTTCCTAATCTTTCTGTTCAAGCGCCATCTAC”, with 0.983 RPM ratio (pull-down/input); and “GATGATTGTTCTCCCAGCTGATGAATTCGATCACTCGAGTAAACAAATTTTCCTAATCTTTCTGTTCAAGCGCCATCTAC”, with 0.872 RPM ratio (pull-down/input). For “GATGATTGTTCTCCCAGCTGATGAATTGCTCTGATCGAGTAAACAAATTTTCCTAATCTTTCTGTTCAAGCGCCATCTAC”, the binding signal was 0.987 RPM ratio (pull-down/input). Then “GATGATTGTTCTCCCAGCTGATGAATTAGACCGCTCGAGTAAACAAATTTTCCTAATCTTTCTGTTCAAGCGCCATCTAC”, with 0.868 RPM ratio (pull-down/input).
